In all, about 150,000 compounds went through this assay and about 540 (0.36%) showed an effect of 50% or more. The list shows a part of the results.
tested on: Plasmodium falciparum; assay: Primary screen in NF54 nanoGlo assay, in single point, at 2uM, 72h; a lower Z score goes with more inhibition; format: functional, Erythrocyte; details: timepoint 72 hour

Structure (SMILES)	% Inhibition [%]	Z score
Cc1cccc(-c2ccc(C(=O)N3CCOC4CCCCC43)c(=O)[nH]2)c1 (stereo not given)	-1	0.1
CC(C)(C)OC(=O)N1CCC2CCCCC2C1C(=O)O (stereo not given)	-8	0.79
Cc1ccc(OCCS(=O)(=O)N2CCNC[C@@H]2C)cc1	-17	2.86
Cn1nc(O)c2c1CN(CC(=O)N1CCCc3ccccc31)CC2	-6	0.64
CCn1cc(CNC(=O)N2C[C@H]3CCC[C@@H](C2)N(C)C3=O)cn1	-6	0.85
Cc1cccc(CN2CCN(Cc3ccc(CO)o3)C[C@@H]2CCO)n1	-2	0.31
O=S(=O)(c1cccc2nsnc12)N1CCc2[nH]c3c(Br)cccc3c2C1	-3	0.33
O=C(Cn1nnc(-c2ccc3c(c2)OCO3)n1)Nc1ccc(F)cc1F	-15	2.03
CCCc1cnc(C)nc1N1CCC(N2CCCC2)CC1	-8	1.59
CCNC(=O)CN(CC)Cc1nnc(C(C)(C)C)o1	0	0.01
COc1ccc(CNCCC(=O)NCc2ccco2)c(F)c1F	-6	0.79
COC(=O)[C@H](NC(=O)N1CCOCC1)c1ccccc1	-19	2.41
O=S(=O)(c1ccc(Cl)cc1)N1CCOC[C@H](Oc2cccnc2)C1	12	-1.35
O=C(CCC1CCN(c2cc(NC3CC3)ncn2)CC1)NCc1ccc(N2CCOCC2)cc1	32	-3.59
CCN(CC)S(=O)(=O)c1ccc(F)c(C(=O)OCc2cc(Cl)c3c(c2)OCCO3)c1	-5	0.6
O=C1C2CC=CCC2C(=O)N1c1ccc(N2C(=O)C3CC=CCC3C2=O)c(Cl)c1 (stereo not given)	-5	0.63
COC(=O)c1cc(NC(=O)COc2ccc(F)cc2)cn1Cc1ccccc1	-8	1.29
O=C1C(NC(CO)c2ccccc2)CCN1c1c(F)cccc1F (stereo not given)	-7	0.75
Cc1cc(C(=O)NCCOc2c(C)cccc2C)c2nc3n(c2n1)CCCCC3	-26	3.02
Cc1ncsc1CN(C)c1nc2ccccc2[nH]1	-2	0.26
NC(=O)c1cc(OC2CCN(c3ncccc3C(F)(F)F)CC2)ccn1	-2	0.19
O=C(NC1CCCCCC1)c1nnc(-c2cccc(Cl)c2)o1	-1	0.11
Cc1cc(NC(=O)N2CCNC(=O)[C@@H]2C)n(CCC(C)C)n1	-9	1.41
Cc1cnc2c(C(=O)N3CCC[C@H](Cc4ccc(C(=O)O)cc4)C3)cnn2c1	-7	1.18
Cc1cc(C(=O)N2CCC(C)(c3noc(-c4cccnc4)n3)CC2)c(C)n1Cc1ccc(F)cc1	-11	1.46
COc1ccc(C(=O)N[C@H]2CO[C@@H](CN3CCC(F)(F)C3)[C@@H]2O)cc1	-5	0.85
Cc1nn(C)cc1CN(C)c1cc(C(=O)N2CCOCC2)ccn1	6	-1.05
COCCCC(=O)N(c1cccc(N2CCCC2)c1)C1CCCCCC1	1	-0.09

Structure (SMILES)	% Inhibition [%]	Z score
Cc1noc(-c2ccc(C(C)(C)C)cc2)c1C(=O)NCc1cc(F)cc(F)c1	-7	1.18
CC(C)CNC(=O)Cc1ccc(F)cc1	-10	1.68
CC(C)(C)c1coc(CC2CCN(C(=O)Cc3ccoc3)CC2)n1	-1	0.13
CCc1cc(NC(=O)N2C[C@@H](C)[C@](C)(C(=O)OC)C2)n(C)n1	-14	1.62
COc1ccc(CCNC(=O)N(C)C)cc1OC	3	-0.34
O=C(OCC(=O)N1CCCCCCC1)C1CCCCC1C(=O)N1CCc2ccccc21 (stereo not given)	-5	0.57
Cn1ncn(CC(=O)c2ccc3c(c2)CCO3)c1=O	-7	0.82
Cc1nnc(N(C)C(=O)c2sc(C)nc2C)s1	-2	0.44
CN(CC(=O)NCc1cccs1)C(=O)c1ncoc1-c1cccs1	-7	0.91
COc1cc(CN(C)[C@H]2CCc3nn(C)c(=O)n3CC2)cc(OC)c1	-3	0.56
CC1(C)CN(CCc2c[nH]nn2)CCc2ccccc21	-3	0.35
Nc1ccnc(C(F)(F)F)c1C(=O)c1ccccc1	-14	2.78
Cc1c(N)nnn1CCOc1ccc(F)cc1	2	-0.3
CN(C(=O)c1ccc(Cl)c(Cl)c1)c1nc2ccccc2o1	-3	0.22
c1ccc2nc(NCCCC3(C4OCCO4)CCOCC3)cnc2c1	-16	2.06
Cc1cccc([C@@H]2CCCN2C(=O)c2c(C)nn(C)c2C)n1	4	-0.54
Cc1nn(C)c(C)c1C(=O)N1CCC[C@H](Oc2ncc(Cl)cn2)C1	0	0.05
O[C@@]1(C(F)(F)F)CCN(Cc2cc(-c3ccccc3)on2)C1	-8	1.07
O=C(CCc1nc(-c2nnc[nH]2)no1)N1CC[C@H](Oc2cccc(Cl)c2)C1	4	-0.54
O=C(Cn1ccccc1=O)N1CCC2(CC1)CNc1ccccc12	4	-0.58
CC[C@H](C)n1c(=O)[nH]c2c1c(=O)n(C)c(=O)n2C	-1	0.17
COCCc1noc(CNC(=O)c2ccncc2C)n1	0	-0.02
Cc1cc(CN(CC2CCC2)c2ccccc2)nn1C	-6	0.99
Cc1cc(NC(=O)N2CC(S(=O)(=O)Nc3ccccc3)C2)no1	-5	0.68
COc1ccc(NC(=O)Cn2nc3c(N4CCOCC4)nccn3c2=O)c(OC)c1	-8	0.8
Cc1cc([C@]2(C)NC(=O)N(Cc3nc(C)c(C)s3)C2=O)c(C)o1	2	-0.22
O=C1CCC2(CCN(C(=O)[C@H]3CC[C@@H](O)CC3)CC2)CN1CCc1ccncc1	-26	2.38

Source: ChEMBL document CHEMBL4888484, “Replenishing the malaria drug discovery pipeline: Screening and hit evaluation of the MMV Hit Generation Library 1 (HGL1) against asexual blood stage Plasmodium falciparum ,using a nano luciferase reporter read-out” (2022)
